# Measurements published in PubChem BioAssay (NCATS).
# Several values for one entry are separate records, joined by “and”; a condition that tells them apart may be missing. Identical values can stand only once. The inconclusive results got no clear call from the source; some entries with a clear call stand among them for comparison. A call without a number means that no potency is given here. For some of these results: A potency beside an inconclusive call is a rough fit, not a confirmed value. Activity calls are given as the source filed them. Unless noted, calls come from the whole dose curve; as a rule, active = well fitted curve in the direction sought with a large enough effect; inconclusive = small, poorly fitted or top-dose-only effect, or another doubt; inactive = no such curve, though single readings can be large; an effect the other way counts as inactive or inconclusive.
# How the values were obtained:
# [1] = qHTS of pediatric cancer cell lines to identify multiple opportunities for drug repurposing: Primary screen for A673 cells (AID 1347092); conditions: A673 Ewing sarcoma viability, CellTiter-Glo ATP luminescence, 48 h; activity change, negative = cytotoxic: at 46 µM (top of the series); note: nearly all actives have a fitted effect of over 45% in size
# How it was run: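 Cell viability of A673 measured by CellTiter-Glo ATP luminescence after 48 hours compound exposure. Dilution series spanned 0.78 nM to 46 µM (MIPE, 11-point) or 0.59 nM to 46 µM (NPC, 8-point); bortezomib 2.3 uM positive control.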
# [2] = qHTS of pediatric cancer cell lines to identify multiple opportunities for drug repurposing: Primary screen for OHS-50 cells (AID 1347103); conditions: OHS-50 osteosarcoma viability, CellTiter-Glo luminescence, 48 h; activity change, negative = cytotoxic: at 57.3 µM (top of the series); note: nearly all actives have a fitted effect of over 40% in size
# How it was run: (§1)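 Cells (500-1,000/well) rested 5 h, then received compounds for 48 h; metabolically active cells were measured by CellTiter-Glo luminescence. Final concentrations spanned up to 46 µM (MIPE, 11-point) or 0.59 nM-46 µM (NPC, 8-point) in primary screens, 11-point in follow-ups.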
# [3] = Primary qHTS for small molecule stabilizers of the endoplasmic reticulum resident proteome: Secreted ER Calcium Modulated Protein (SERCaMP) assay (AID 1508630); conditions: SH-SY5Y GLuc-SERCaMP (Gaussia luciferase released on ER calcium loss) secretion, thapsigargin, luminescence; activity change, negative = inhibition: at 38.4 µM (top of the series) unless noted; note: potency is the fitted concentration of half-maximal effect
# How it was run: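 The SH-SY5Y reporter protocol was run at 3 concentrations up to 38.3 uM (primary) or 11 concentrations (follow-up): 16 h compound, 100 nM thapsigargin for 4 h, then extracellular luciferase luminescence.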
# [4] = Primary qHTS for inhibitors of nuclear receptor binding SET domain protein 2 (NSD2) in an isogenic RCH-ACV NSD2 p.E1099K mutant (9B) (AID 1645876); conditions: activity change, negative = viability loss: at 44.9 µM (top of the series) unless noted; note: potency is the fitted concentration of half-maximal effect; nearly all actives have a fitted effect of over 70% in size
# [5] = Primary qHTS for inhibitors of nuclear receptor binding SET domain protein 2 (NSD2) in an RCH-ACV wild type WT cells (2C) (AID 1645877); conditions: activity change, negative = cell killing: at 44.9 µM (top of the series) unless noted; note: nearly all actives have a fitted effect of over 70% in size; note: potency is the fitted concentration of half-maximal effect
# UISO = assay: qHTS assay to identify novel small-molecules to repurpose for Merkel cell carcinoma treatment (AID 1296009); conditions: MCC and control cell lines, CellTiter-Glo viability, 72 h; series mostly up to 46 µM; note: nearly all actives have a fitted effect of over 60% in size
# How it was run: (§2)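 Luminescence from CellTiter-Glo, read 10 min after addition at room temperature, reported viability following a 72 hr, 37 degree celsius treatment with NPC or MIPE compounds in titration; values normalized to plate controls.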
# [6] = Drug repurposing screens with cells derived from glioblastoma tumor samples (AID 1345199); conditions: GBM patient neurospheres viability, ATP luminescence, 48 h; Potency: tumour line A unless noted; activity, negative = cell killing: at 46 µM (top of the series), tumour line A unless noted; note: potency is the fitted concentration of half-maximal effect; nearly all actives have a fitted effect of over 40% in size
# How it was run: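 Primary testing used CD133+ neurospheres from four GBM patients, seven concentrations, 48 h exposure and ATP-based viability; confirmation added three slower-growing patient lines.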
# W2 = assay: qHTS profiling for inhibitors of Plasmodium falciparum proliferation (AID 504749); note: nearly all actives have a fitted effect of over 60% in size; note: potency is the fitted concentration of half-maximal effect; conditions: P. falciparum in erythrocytes, SYBR Green DNA, 72 h; activity, negative = inhibition: at 28.7 µM (top of the series)
# How it was run: (§3)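 Fluorescence of SYBR Green-bound parasite DNA, read at 485/535 nm, served as the growth measure. Infected erythrocytes were cultured with compound 72 h; artemisinin (0.29 uM) and DMSO wells defined the normalization range.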
# [7] = qHTS of pediatric cancer cell lines to identify multiple opportunities for drug repurposing: Primary screen for SK-N-MC cells (AID 1347093); conditions: SK-N-MC viability, CellTiter-Glo luminescence, 48 h; activity change, negative = cytotoxic: at 46 µM (top of the series)
# How it was run: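 Metabolically active cells were quantified by ATP-dependent luminescence (CellTiter-Glo, 15 min at room temperature) following 48 h treatment. Cells had been plated at 500-1,000 per well and settled for 5 h beforehand.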
# [8] = qHTS of pediatric cancer cell lines to identify multiple opportunities for drug repurposing: Primary screen for Saos-2 cells (AID 1347097); conditions: Saos-2 viability, CellTiter-Glo ATP luminescence, 48 h; activity change, negative = cytotoxic: at 46 µM (top of the series); note: nearly all actives have a fitted effect of over 40% in size; note: potency is the fitted concentration of half-maximal effect
# How it was run: (§4)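 500-1,000 cells/well; 5 h pre-incubation 37 °C/5% CO2; compound pinned; 48 h; CellTiter-Glo, 15 min RT; luminescence. MIPE 11-pt from 0.78 nM, NPC 8-pt from 0.59 nM final. Bortezomib 2.3 µM final as positive control.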
# [9] = A High-Content qHTS Against Drug Library for the Identification of Small Molecules that Inhibit DYT1 Early Onset Primary Dystonia-Associated Cell Pathology (AID 1645839; calls by dose curve)
# How it was run: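 Induced EGFP-delE TorsinA cells are imaged after 48 h of compound treatment. Punctate fusion-protein distribution gives the %pathology value, while nuclei counts flag toxicity. Wild-type EGFP-hTOR1A cells define the normal pattern.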
# WaGa = assay: qHTS assay to identify novel small-molecules to repurpose for Merkel cell carcinoma treatment (AID 1296009); conditions: MCC and control cell lines, CellTiter-Glo viability, 72 h; series mostly up to 46 µM; note: nearly all actives have a fitted effect of over 60% in size
# How it was run: as §2
# CAOV3 = assay: Primary qHTS to identify gynecologic anti-cancer compounds using libraries of approved drugs and bioactive compounds (AID 1345084); conditions: Gynecologic cancer cell panel viability, ATPlite luminescence, 48 h; series mostly up to 57.5 µM; note: nearly all actives have a fitted effect of over 55% in size; note: potency is the fitted concentration of half-maximal effect
# How it was run: (§5)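 Cytotoxicity screen measuring ATP content by luciferase luminescence. Each compound is applied at five concentrations for 48 h at 37 C with 5% CO2.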
# DIV17 = assay: qHTS profiling for inhibitors of Plasmodium falciparum proliferation (AID 504749); note: nearly all actives have a fitted effect of over 60% in size; note: potency is the fitted concentration of half-maximal effect; conditions: P. falciparum in erythrocytes, SYBR Green DNA, 72 h; activity, negative = inhibition: at 28.7 µM (top of the series)
# How it was run: as §3
# SKOV3 = assay: Primary qHTS to identify gynecologic anti-cancer compounds using libraries of approved drugs and bioactive compounds (AID 1345084); conditions: Gynecologic cancer cell panel viability, ATPlite luminescence, 48 h; series mostly up to 57.5 µM; note: nearly all actives have a fitted effect of over 55% in size; note: potency is the fitted concentration of half-maximal effect
# How it was run: as §5
# [10] = qHTS of pediatric cancer cell lines to identify multiple opportunities for drug repurposing: Primary screen for SK-N-SH cells (AID 1347098); note: nearly all actives have a fitted effect of over 65% in size; note: potency is the fitted concentration of half-maximal effect;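 for activity change, negative = cytotoxic: DMSO served as neutral control and bortezomib at 2.3 µM as positive control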
# How it was run: as §1
# [11] = qHTS of pediatric cancer cell lines to identify multiple opportunities for drug repurposing: Primary screen for Rh41 cells (AID 1347108);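 note: luminescence drop marks cytotoxic hits; nearly all actives have a fitted effect of over 70% in size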
# How it was run: as §4
# [12] = qHTS of pediatric cancer cell lines to identify multiple opportunities for drug repurposing: Primary screen for BT-37 cells (AID 1347094)
# How it was run: as §4
# Tags give direction and shape of the fitted curve.
smiles,measurement,setting,value
NNc1nnc(NN)c2ccccc12,Potency,[1],inactive
same,Potency,[2],inactive
same,Potency,[3],"inconclusive: 1.78 µM [inhibitor, full curve]"
same,Potency,[4],"inconclusive: 33.5 µM [inhibitor, single point]"
same,Potency,[5],"inconclusive: 29.9 µM [inhibitor, single point]"
same,Potency,UISO,inactive
same,Potency,[6],"inconclusive: 35.5 µM [inhibitor, single point]"
same,Potency,W2,"inconclusive: 19 µM [inhibitor, partial curve, poor fit]"
C=CCN1CCc2nc(N)sc2CC1,Potency,[1],inactive
same,Potency,[7],inactive
same,Potency,[8],inactive
same,Potency,[3],"inconclusive: 10 µM [inhibitor, full curve]"
same,Potency,[9],inactive
same,Potency,[5],inactive
same,Potency,WaGa,inactive
same,Potency,CAOV3,inactive
same,Potency,[6],"inconclusive: 35.5 µM [inhibitor, single point]"
same,Potency,DIV17,inactive
O=C(O)C(=O)Nc1cccc(-c2nn[nH]n2)c1,Potency,[3],"inconclusive: 12.6 µM [inhibitor, single point]"
same,Potency,[9],inactive
same,Potency,WaGa,inactive
same,Potency,SKOV3,inactive
C[N+](C)(C)CC[N+]1(C)Cc2c(Cl)c(Cl)c(Cl)c(Cl)c2C1,Potency,[1],inactive
same,Potency,[10],inactive
same,Potency,[11],inactive
same,Potency,UISO,inactive
same,Potency,[6],"inconclusive: 39.8 µM [inhibitor, partial curve, poor fit]"
O=S(=O)(O)NC1CCCCC1,Potency,[12],inactive
same,Potency,[3],"inconclusive: 31.6 µM [inhibitor, partial curve, poor fit]"
same,Potency,WaGa,inactive
same,Potency,[6],"inconclusive: 18.4 µM [inhibitor, partial curve, poor fit] [tumour line C]"
same,Potency,W2,"inconclusive: 4.26 µM [inhibitor, partial curve, poor fit]"
CCOC(=O)n1ccn(C)c1=S,"activity change, negative = cytotoxic",[7],inconclusive: -36.6% [cytotoxic]
same,Potency,[3],inactive
same,Potency,[4],"inconclusive: 33.5 µM [inhibitor, single point]"
same,Potency,[5],"inconclusive: 29.9 µM [inhibitor, single point]"
same,Potency,WaGa,inactive
same,Potency,SKOV3,inactive
CN1[C@@H]2CC[C@H]1CC(OC(=O)c1c[nH]c3ccccc13)C2 (stereo partly specified),Potency,[10],"inconclusive: 0.172 µM [cytotoxic, full curve, poor fit]"
same,Potency,[3],"inconclusive: 10 µM [inhibitor, partial curve, poor fit] and active: 35.5 µM"
same,Potency,WaGa,inactive
CCC(C)(Oc1ccc(C2(c3ccc(OC(C)(CC)C(=O)O)cc3)CCCCC2)cc1)C(=O)O (stereo unspecified),Potency,[7],inactive
same,Potency,[8],"inconclusive: 26.6 µM [cytotoxic, single point]"
same,Potency,[3],"inconclusive: 7.49 µM [inhibitor, full curve]"
same,Potency,WaGa,inactive
same,Potency,SKOV3,"inconclusive: 22.4 µM [rising, single point]"
